# Sequences with one replicate were seen in a single cluster, so their values are uncertain.
# Tested on: ATP
# Assay: switch fluorescence ratio, 500 uM ATP over buffer (Cy3 cluster intensity, sum of 5 cycles each) (fold (ratio)); higher = stronger signal-on switching upon ATP binding; sequences stand for … in TCGTCGGCAGCGTCAGATGTGTATAAGAGACAGTTTTTTTTTTTTTTTTTTTTTTTTT…TC
# Conditions: aptamer strand: ATP DNA aptamer (quencher-CACCTGGGGGAGTATTGCGGAGGAAGG + anchor), 100 nM annealed; ATP concentration: 500 uM; one replicate
# In short: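 For every switch-domain sequence, the fluorescence ratio is the mean of per-cluster values, each being summed target-cycle Cy3 intensity over summed buffer-cycle Cy3 intensity. Clusters outside 100-1000 RFU were excluded. On a modified Illumina MiSeq flow-cell, the Cy3-labelled switching-strand clusters were annealed to 100 nM quencher-labelled ATP aptamer, imaged in selection buffer and then after 15 min with 500 uM ATP at 22 °C. Five such cycles were run, with NaOH stripping and re-annealing between them.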
# 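Further: ATP exposure 15 min at 22 °C before imaging.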
row,Sequence,switch fluorescence ratio
1,CATTGTGAAA,0.994
2,CATTGTTCGG,0.999
3,CATTTAACGG,1.01
4,CATTTCGGGA,0.985
5,CATTTCTGGA,0.976
6,CATTTGACCG,0.915
7,CATTTGGTAG,1.01
8,CATTTGTTGC,1.03
9,CATTTTATAG,0.983
10,CATTTTGCTC,1.05
11,CCAAAACTTT,0.98
12,CCAAAAGGGG,1.05
13,CCAAAATGGA,0.992
14,CCAAAGGAGC,1.02
15,CCAAAGGCGA,1.32
16,CCAAATTTAT,0.983
17,CCAACACCTT,1.15
18,CCAACATATC,1.15
19,CCAAGAACGG,1.07
20,CCAAGACTGG,0.964
21,CCAAGCATGT,2.07
22,CCAAGCCGGT,1.05
23,CCAAGCGTAG,1.08
24,CCAAGCTGGG,1.05
25,CCAAGGACAA,1.15
26,CCAAGGGGA,1.01

row,Sequence,switch fluorescence ratio
1,CCAAGTAGCC,1.02
2,CCAAGTCAGG,1.05
3,CCAAGTCGTC,1.05
4,CCAAGTGTCG,0.977
5,CCAAGTTAGT,1.08
6,CCAATAGCTG,1.43
7,CCAATAGGGA,1
8,CCAATCGGTG,1.12
9,CCAATCTTTT,1.02
10,CCAATGCCT,1.04
11,CCAATTATCA,1.02
12,CCAATTATCT,1.01
13,CCAATTGATG,1.02
14,CCAATTGTAA,1
15,CCAATTGTTT,1.02
16,CCAATTTGAG,1.01
17,CCACAAAGTC,1.17
18,CCACAAGCTG,1.19
19,CCACACGTGG,0.97
20,CCACAGATTC,1.11
21,CCACATAACA,1.11
22,CCACATATAA,1.25
23,CCACCCAGCG,3.37
24,CCACCCAGCT,1.05
25,CCACCCTGGT,1.15
26,CCACGAGT,1.01

row,Sequence,switch fluorescence ratio
1,CCACGCACCT,1.72
2,CCACGCCACC,1.83
3,CCACGCGATG,3.14
4,CCACTAACAG,1.06
5,CCACTCATG,1
6,CCACTCCTGA,0.997
7,CCACTGAATA,1.11
8,CCACTTCCCG,1.33
9,CCAGAAACTC,1.03
10,CCAGAATCTC,1.01
11,CCAGAGAGCA,0.997
12,CCAGATTTAC,1.02
13,CCAGCCTCGT,1.05
14,CCAGCCTGGC,1.03
15,CCAGCGATCA,1.37
16,CCAGCGGCGC,0.97
17,CCAGCTCGAC,1.38
18,CCAGCTTTCA,1.01
19,CCAGGAGCCC,1.13
20,CCAGGAGGTG,1.34
21,CCAGGAGTTT,1.05
22,CCAGGATGGA,1.02
23,CCAGGCGTCG,1.01
24,CCAGGCTTCC,2.55
25,CCAGGCTTTT,1.05
26,CCAGGGCATT,1.13

row,Sequence,switch fluorescence ratio
1,CCAGGGTTCC,1.02
2,CCAGGTGGAA,1.28
3,CCAGGTGGGG,1.93
4,CCAGTATGGG,0.996
5,CCAGTGAATG,0.986
6,CCATAACGTG,0.969
7,CCATAATGTA,0.971
8,CCATACAAT,1.1
9,CCATACAGTG,1.09
10,CCATACGATG,1.06
11,CCATAGCGCG,1.2
12,CCATAGCTCG,1.05
13,CCATATAGGT,1.04
14,CCATATTACG,1.03
15,CCATCCCAGC,1.01
16,CCATCCTTAG,1.01
17,CCATCGTCTG,1.04
18,CCATCTCTGA,1.02
19,CCATCTTCAC,1.05
20,CCATGAATTC,0.973
21,CCATGCGGT,1.06
22,CCATGCTGGT,0.979
23,CCATGCTTTG,1
24,CCATGGCGGA,1.04
25,CCATGGTGGA,1.03
26,CCATGTAGTT,0.943

row,Sequence,switch fluorescence ratio
1,CCATGTGTA,0.975
2,CCATGTTGTG,1
3,CCATGTTTTC,0.981
4,CCATTAAAGG,1.02
5,CCATTATGTG,1
6,CCATTCCTTG,1.01
7,CCATTCGGGT,1.02
8,CCATTCTTTT,0.987
9,CCATTGTCCA,1.02
10,CCATTGTGAG,1.01
11,CCCAACCGAG,1.32
12,CCCAACGGCC,1.06
13,CCCAACGTGG,1.01
14,CCCAAGGTTT,1.11
15,CCCAATCAA,1.09
16,CCCAATTAGA,1.01
17,CCCAATTATC,1.57
18,CCCAATTTGT,0.998
19,CCCACATAGC,1.32
20,CCCACATGAA,1.02
21,CCCACCTTCA,1.87
22,CCCACGCGAT,1.6
23,CCCACTTACA,1.33
24,CCCAGCCGTG,1.09
25,CCCAGCGCGA,2.3
26,CCCAGGACAT,1.06

row,Sequence,switch fluorescence ratio
1,CCCATAGAGT,0.99
2,CCCATATTGC,1.03
3,CCCATGCACT,1.22
4,CCCATGGCTC,1.06
5,CCCATGTGAC,1.26
6,CCCATTAAAA,1.01
7,CCCATTTATC,1.05
8,CCCATTTCT,0.999
9,CCCCAAAAGG,1.05
10,CCCCAAATTG,1.05
11,CCCCAATCCA,1.06
12,CCCCACCCTC,1.67
13,CCCCAGAACG,1.22
14,CCCCCCCACG,1.78
15,CCCCCCTATG,1.3
16,CCCCCGGAGG,1.28
17,CCCCCGGGAA,1.44
18,CCCCGACATC,3.95
19,CCCCGAGGTT,1.78
20,CCCCGCAGGT,3.99
21,CCCCGTATTG,1.4
22,CCCCGTGAGC,3.38
23,CCCCGTTTCA,1.07
